# Data published in article PMC4336329 (PLoS ONE, 2015).
# The whole screen tested about 310,000 compounds, of which about 14,000 (4.5%) showed an effect of 50% or more. Effects have a minus sign here. The list shows a part of the results.
# Target: human ether-à-go-go-related gene (hERG) potassium channel (human, UniProt Q12809)
# Assay: primary screen, population patch clamp on CHO cells stably expressing hERG
# 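Also: peak tail current of the secondary pulse compared with the same well before compound.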
# human ether-à-go-go-related gene (hERG) potassium channel, sequence (Q12809 whole entry, looked up): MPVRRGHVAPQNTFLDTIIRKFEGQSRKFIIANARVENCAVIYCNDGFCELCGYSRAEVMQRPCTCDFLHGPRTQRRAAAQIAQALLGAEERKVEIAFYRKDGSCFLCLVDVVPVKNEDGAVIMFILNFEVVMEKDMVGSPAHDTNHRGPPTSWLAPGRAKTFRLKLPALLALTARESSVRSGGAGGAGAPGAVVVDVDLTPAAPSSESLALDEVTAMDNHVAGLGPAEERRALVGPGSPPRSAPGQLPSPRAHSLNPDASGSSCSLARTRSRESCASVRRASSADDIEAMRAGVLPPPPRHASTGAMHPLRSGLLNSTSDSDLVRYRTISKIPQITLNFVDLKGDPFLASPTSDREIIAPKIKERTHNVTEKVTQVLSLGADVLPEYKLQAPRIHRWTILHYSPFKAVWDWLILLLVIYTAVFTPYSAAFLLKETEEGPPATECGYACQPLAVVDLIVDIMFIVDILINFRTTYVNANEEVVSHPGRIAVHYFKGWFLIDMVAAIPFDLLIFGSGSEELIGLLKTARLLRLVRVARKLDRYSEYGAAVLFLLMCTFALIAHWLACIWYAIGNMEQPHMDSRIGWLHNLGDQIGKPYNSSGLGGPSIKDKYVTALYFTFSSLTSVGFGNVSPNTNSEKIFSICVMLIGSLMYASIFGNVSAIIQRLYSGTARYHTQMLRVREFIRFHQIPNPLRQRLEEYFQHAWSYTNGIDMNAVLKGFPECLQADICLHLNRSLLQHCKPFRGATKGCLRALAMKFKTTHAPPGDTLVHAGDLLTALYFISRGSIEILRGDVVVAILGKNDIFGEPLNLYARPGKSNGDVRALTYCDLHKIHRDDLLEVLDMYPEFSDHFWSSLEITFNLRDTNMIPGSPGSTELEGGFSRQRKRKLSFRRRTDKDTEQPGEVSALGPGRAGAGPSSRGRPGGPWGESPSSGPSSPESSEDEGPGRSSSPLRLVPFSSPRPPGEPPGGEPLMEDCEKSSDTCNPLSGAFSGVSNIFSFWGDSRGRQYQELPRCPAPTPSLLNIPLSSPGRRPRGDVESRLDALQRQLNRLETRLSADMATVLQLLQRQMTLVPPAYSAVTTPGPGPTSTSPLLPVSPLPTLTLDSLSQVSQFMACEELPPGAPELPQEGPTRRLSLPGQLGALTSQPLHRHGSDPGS
row,Compound,"hERG current change (%, negative = inhibition) at 10uM [%]"
1,NC(=O)C(=O)N/N=C/c1c(F)c(F)c(F)c(F)c1F,15.5
2,CN1CCN(CCCNC(=O)c2ccc(/C=C3\Oc4ccccc4N(Cc4ccc(Cl)cc4)C3=O)cc2)CC1,-1.51
3,Cc1ccc(S(=O)(=O)N(C)C)cc1NC(=S)N(CCC#N)Cc1cccnc1,-10.3
4,O=c1cc(O)c(-c2cccc(Cl)c2)c(Cl)[nH]1,12
5,C=CCn1cc(/C=C2/NC(=O)NC2=O)c2ccccc21,18
6,CN(C)S(=O)(=O)c1cccc(NC(=O)CSc2nc3ccccc3[nH]2)c1,-22.2
7,CN(C)C1N(C(=O)c2ccccc2)N=C2c3ccccc3S(=O)(=O)N21 (stereo not drawn),11.3
8,CCC(CC)N1CCN(S(=O)(=O)c2ccc(OC)cc2)CC1.O=C(O)C(=O)O,11.5
9,COC(=O)Nc1ccc(S(=O)(=O)Nc2ccc(O)cc2)cc1,-3.18
10,CC(NC(=O)c1ccc(S(C)(=O)=O)cc1)c1cccc2ccccc12 (stereo not drawn),-5.61
11,Cc1cc(NC(=O)CSCC(=O)OC(C)C(=O)c2cc(C)c(C)cc2C)no1 (stereo not drawn),1.53
12,Nc1c(N)c2ccccc2oc1=O,0.889
13,Cc1ccc(OCc2cc(C(=O)N(CCO)Cc3cccs3)no2)cc1C,-9.81
14,NC(=O)c1ccc(C(F)(F)F)n(Cc2c(Cl)cccc2Cl)c1=O,25.1
15,Cc1cc(C)nc(Nc2n[nH]c(COc3ccc4ccccc4c3)n2)n1,9.69
16,CCn1nc(C(=O)Nc2cccc(S(=O)(=O)N3CCCC3)c2)c2ccccc2c1=O,-22.3
17,Cc1c(C(=O)O)cccc1-c1ccc(/C=N/Nc2ccc(Br)cc2)o1,30.2
18,CC(=O)c1ccc(NC(=S)Nc2ccc3[nH]c(=O)[nH]c3c2)cc1,17
19,CCOC(=O)CC1C(=O)NCCN1Cc1cccc(OC)c1 (stereo not drawn),12

row,Compound,"hERG current change (%, negative = inhibition) at 10uM [%]"
1,O=C(O)c1cccc(S(=O)(=O)N2CCc3ccccc3C2)c1,12.6
2,O=[N+]([O-])c1ccc(/C=N/Nc2ncccc2[N+](=O)[O-])s1,7.1
3,CC(C)OC(=O)C1C(=O)CC(C)(O)C(C(=O)OC(C)C)C1c1cccnc1 (stereo not drawn),35.1
4,O=C(COC(=O)c1cc2ccccc2cc1O)NC(=O)NCc1ccco1,23.1
5,O=C(NCC(c1cccnc1)N1CCOCC1)C1CCCCC1 (stereo not drawn),5
6,CS(=O)(=O)N1CCN(C(=O)Cc2ccccc2)CC1,12.8
7,Cc1ccc(-n2c(C)cc(/C=C3/C(=N)N4C(c5ccccc5)=CSC4=NC3=O)c2C)cc1,12.7
8,CCOc1cc2[nH]c(=S)n(CCC(=O)N3CCc4ccccc4C3)c(=O)c2cc1OCC,3.34
9,O=C(Cc1coc2ccc3ccccc3c12)N1CCc2ccccc21,17.8
10,CCOC(=O)C1C(c2ccc(OC)cc2)N(C)OC1(O)C(F)(F)F (stereo not drawn),8.45
11,COc1ccc(-c2ccc(OC)c([C@H]3[C@H]4C=CC[C@@H](C)[C@@H]4C(=O)N3Cc3ccccc3)c2)cc1OC,20.6
12,COc1ccc(S(=O)(=O)N2CCN(C(=O)Nc3ccccc3OC)CC2)cc1,-8.69
13,CCn1ncc(S(=O)(=O)NCc2ccco2)c1C,-0.626
14,CN(C)c1cc(-c2ccccc2)nc(-c2ccccc2)n1,14
15,O=C(CN1C(=O)NC2(CCCC2)C1=O)OCCOc1cccc(Cl)c1,-7.43
16,O=C(O)C(=O)/C(=C\c1ccsc1)c1ccc2ccccc2n1,15.1
17,Cl.O=C1c2ccccc2-c2cccnc21,21.4
18,Cc1ccccc1OCCN1CCC(Cc2ccccc2)CC1.O=C(O)C(=O)O,-58.5
19,CCOc1ccc(OCCC(=O)NNC(=O)c2ccccc2Cl)cc1,-4.73

row,Compound,"hERG current change (%, negative = inhibition) at 10uM [%]"
1,CCOC(=O)N1CCN(C(=O)c2cc3c(-c4cccc(OC)c4)nn(C)c3s2)CC1,-35.6
2,COc1ccc(O)c(/C=N\NC(=O)CCn2nnc3ccccc32)c1,-14.7
3,O=C(O)/C=C/C(=O)OC1CC2CCC1C2 (stereo not drawn),14
4,O=C(CSc1nc2ccccc2c(=O)n1CC1CCCO1)NCc1ccccc1 (stereo not drawn),-11
5,Cn1nc(C(F)(F)F)c(-c2cccc(C(F)(F)F)c2)c1NC(=O)c1nccnc1C(=O)O,3.44
6,CN(C)S(=O)(=O)c1ccc(C(=O)Nc2ccccc2SCCC#N)cc1,-12.4
7,COc1ccc(NC(=O)c2cccc(F)c2)cc1Cl,1.72
8,CC1CN(C(=O)COC(=O)Cc2c(F)cccc2Cl)CC(C)O1 (stereo not drawn),6.12
9,COc1cc(/C=C2\SC(=Nc3ccccc3)NC2=O)cc(Cl)c1O,11.3
10,CC1CCN(Cc2nnnn2CCCC(=O)N(C)C(C)c2ccccn2)CC1 (stereo not drawn),6.32
11,COc1ccc(OC)c(NC(=O)Cn2cccc2)c1,-14.1
12,CCCn1cc(SCC(=O)NCc2ccco2)c2ccccc21,-25.9
13,CCOC(=O)Cc1c(C)c2c(C)[nH]nc2oc1=O,-12.1
14,Cn1c(N)c(C(=O)CSc2ncn[nH]2)c(=O)n(C)c1=O,18.8
15,COc1ccc(/C=C(\NC(=O)c2ccc(OC)cc2)C(=O)Nc2ccc(C(=O)O)cc2)cc1,9.17
16,CC1(C)CC(=O)C2=C(C1)NC(=O)NC2c1ccc([N+](=O)[O-])cc1 (stereo not drawn),16
17,CCOc1ccc(C(=O)NCC(=O)OCCCOC(=O)CNC(=O)c2ccc(OCC)cc2)cc1,8.79
18,CCN(C(=O)c1cnc2scc(C)n2c1=O)c1ccccc1C,5.18
19,CCCCOC(=O)c1cc(=O)[nH]c2ccccc12,-14.4
